Results reported in patent US20200369774A1 (JIANGSU HENGRUI MEDICINE, published 2020).
Like-named read-outs stand apart in the source and are kept apart here.

T1: membrane-type IL-6R on cells (U266B1, TF-1, Hep3B) (UniProt P08887 20-468, limits assumed)
T1 sequence (looked up): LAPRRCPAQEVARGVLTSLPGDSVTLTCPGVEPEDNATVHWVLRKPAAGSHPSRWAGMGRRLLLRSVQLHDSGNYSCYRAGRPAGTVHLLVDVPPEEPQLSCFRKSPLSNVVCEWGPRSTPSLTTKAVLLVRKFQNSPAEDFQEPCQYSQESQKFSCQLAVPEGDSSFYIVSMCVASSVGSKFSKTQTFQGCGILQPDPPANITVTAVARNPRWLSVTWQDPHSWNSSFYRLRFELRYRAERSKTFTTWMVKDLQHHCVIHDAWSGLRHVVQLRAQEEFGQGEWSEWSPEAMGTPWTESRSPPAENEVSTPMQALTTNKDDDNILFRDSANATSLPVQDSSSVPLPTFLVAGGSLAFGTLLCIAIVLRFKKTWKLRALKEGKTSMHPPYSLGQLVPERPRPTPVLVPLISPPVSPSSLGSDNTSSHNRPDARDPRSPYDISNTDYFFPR

T2: hIL-6R.BP15 (human interleukin-6 receptor with BP15 tag, biotinylated) (human, UniProt P08887 20-365, site-directed biotinylation on the BP15 tag)
T2 sequence: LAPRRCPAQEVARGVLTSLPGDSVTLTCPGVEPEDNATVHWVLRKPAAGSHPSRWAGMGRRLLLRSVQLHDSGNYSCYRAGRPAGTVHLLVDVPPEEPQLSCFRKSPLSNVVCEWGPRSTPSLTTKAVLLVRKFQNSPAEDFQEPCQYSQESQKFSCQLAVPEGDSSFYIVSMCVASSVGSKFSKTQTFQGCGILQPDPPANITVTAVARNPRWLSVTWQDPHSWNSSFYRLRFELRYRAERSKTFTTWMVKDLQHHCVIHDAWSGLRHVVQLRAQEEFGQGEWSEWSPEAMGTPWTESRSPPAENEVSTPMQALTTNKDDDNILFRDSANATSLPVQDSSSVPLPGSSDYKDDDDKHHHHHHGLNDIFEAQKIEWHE

T3: hIL-6R.His (human interleukin-6 receptor with His tag) (human, UniProt P08887 20-365)
T3 construct: Soluble recombinant antigen expressed in 293E cells; The entry includes the His tag
T3 sequence: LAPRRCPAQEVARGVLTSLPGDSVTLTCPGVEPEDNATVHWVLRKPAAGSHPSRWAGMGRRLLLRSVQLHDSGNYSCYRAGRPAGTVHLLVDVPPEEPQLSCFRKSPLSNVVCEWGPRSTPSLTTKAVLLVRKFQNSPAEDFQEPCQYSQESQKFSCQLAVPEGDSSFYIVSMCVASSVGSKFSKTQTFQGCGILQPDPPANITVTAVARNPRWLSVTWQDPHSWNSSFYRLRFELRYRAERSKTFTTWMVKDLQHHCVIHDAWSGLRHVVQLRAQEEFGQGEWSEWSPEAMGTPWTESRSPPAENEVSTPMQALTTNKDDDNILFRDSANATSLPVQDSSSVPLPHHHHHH


What was measured:
[1] = biological target: T1, membrane-type IL-6R on cells (U266B1, …); assay: cell-based or functional assay
[2] = biological target: T2, hIL-6R.BP15 (human interleukin-6 …); assay: blocking ELISA: coated gp130, IL-6.his and IL-6R.BP15 (0.06 ug/ml) with serially diluted antibody, HRP-streptavidin, OD450; blocked: binding of the IL-6/IL-6R complex to gp130; unit from the abscissa
Experimental: (§1) The complex of IL-6 and IL-6R can bind to GP130. The assay will evaluate if the selected antibodies were able to block the formation of IL-6/IL-6R/gp130 complex by binding to IL-6R. The plates were coated with 1 μg/ml gp130 (diluted in PBS) at 4° C. overnight. The coating solution was discarded, and plates were blocked with 5% skim milk in PBS at 37° C. for 2-3h. After blocking, the plates were washed 3 times with washing buffer PBST (0.1% Tween-20 in PBS).
(§2) IL-6.his and IL-6R.BP15 were diluted with 1% BSA in PBS to a concentration of 0.06 μg/ml. Starting at 50 ug/ml, IL-6R antibodies were 1:3 serially diluted in dilution buffer and Both testing antibody samples and IL-6/IL-6R complex were added to the plate followed by lh incubation at 37° C. After that, the plates were washed for 3 times with washing buffer PBST (0.1% Tween-20 in PBS).
(§3) 1:2000 diluted Secondary antibody HRP streptavidin (Jackson, 016-030-084) was added to the plate followed by 1 h incubation at 37° C.After incubation and wash,. TMB was used for development. OD₄₅₀ values were read.

[3] = biological target: T2, hIL-6R.BP15 (human interleukin-6 …); assay: as above; remark: listed apart in the source
Experimental: as §1, §2, §3

[4] = biological target: T2, hIL-6R.BP15 (human interleukin-6 …); assay: blocking ELISA: coated IL-6.Fc, 1 ng/ul biotinylated IL-6R.BP15 with serially diluted antibody, HRP-streptavidin, OD450 falls with concentration; blocked ligand IL-6.Fc; sheet heads the row EC50; unit from the abscissa
Experimental: The formation of IL-6R/IL-6 complex can be blocked by the binding of IL-6R antibody to IL-6R, indicating the downstream cell signaling could be blocked by preventing IL-6/IL-6Rcomplex formationon the cell membrane. All of the expressed the purified antibodies were tested for their abilities to block the binding between IL-6 and IL-6R by ELISA. The procedures was descripted as follows:
The plates were coated with100 μl of 2 ng/μl IL-6.Fc at 4° C. overnight, and blocked with 2% skim milk at 37° C. for 1 hour. The plates were then washed, incubated with 100 μl of serial diluted testing samples with and 1 ng/μl IL-6R.BP15. After 1 hourincubation at 37° C,. the plates were washed andHRP-streptavidin (Jackson, 016-030-084) diluted at 1:4000 was added to the plate followed by incubation. After wash and 100 μl TMB develoment at room temperature for 5 min. 100 μl of 1M H₂SO₄ was added to terminate the reaction. The OD₄₅₀ values were read.

[5] = biological target: T3, hIL-6R.His (human interleukin-6 …); assay: SPR (Biacore T200), antibody captured by anti-human capture antibody, hIL-6R.his as analyte, 1:1 Langmuir
Excerpt: Human anti-capture antibodies were covalently coupled onto Biosensor chip CM5 (Cat.# BR-1000-12, GE) in a Biacore instrument (Biacore T200, GE) with Human Anti-Capture Kit (Cat. #BR-1008-39, GE) according to manufacturer's protocol, thereby certain amounts of antibodies to be tested were captured. Antigens (hIL-6R.his and cIL-6R.FH) at a series of concentration gradients were then flowed through the surface of the chip . The reaction signals were detected in real time using Biacore instrument (Biacore T200, GE) to obtain binding and dissociation curves.
After each cycle of dissociation, the biochips were washed and regenerated with the regeneration solution provided in the Human Anti-Capture Kit. The amino coupling kit used in the experiment was purchased from GE (Cat. #BR-1000-50, GE) and the buffer was HBS-EP+10×buffer solution (Cat.#BR-1006-69, GE), diluted to 1×(pH 7.4) with D.I. water.
The experimental data were fitted with BlAevaluation version 4.1 and GE software (1:1) Langmuir model to obtain the affinity values.

| Binder | EC50, blocking effect on IL-6-stimulated TF-1 proliferation [1] [nM] | IC50 [2] [µg/mL] | IC50 [3] [µg/mL] | EC50 [4] [µg/mL] | Kd [5] [nM] | koff [5] [s⁻¹] | kon [5] [M⁻¹ s⁻¹] |
| --- | --- | --- | --- | --- | --- | --- | --- |
| 20A11-Fc fusion protein (Fc fusion, Positive control antibody) EVQLVESGGGLVQPGGSLRLSCAASGSVFKINVMAWYRQAPGKGRELVAGIISGGSTSYADSVKGRFTISRDNAKNTLYLQMNSLRPEDTAVYYCAFITTESDYDLGRRYWGQGTLVTVSS[here human IgG1 Fc with changes without letters] | 0.354 | 0.0304 | 0.0263 | 0.131 | – | – | – |
| 1764 VHH-hFc fusion protein (Fc fusion, expressed in 293E cells and purified on protein A. No linker is stated; also called IL-6R single domain antibody 1764; IL-6R antibody 1764) EVQLVESGGGLVQAGGSLRLSCEASGNIFKINVMGWYRQAPGKQREWVAAIISGGSTNYADSVKGRFTISRDNAKNTVYLQMNSLKPEDTAVYYCNAILTYNDYDLGSDYWGQGTQVTVSS[here human IgG1 Fc with changes without letters] | 0.41 | 0.0343 | – | 0.128 | 0.129 | 0.000164 | 1.28e+06 |
| 1764-mu1 VHH-hFc fusion protein (Fc fusion, also called variant 1 (A14P, K86R)) EVQLVESGGGLVQPGGSLRLSCEASGNIFKINVMGWYRQAPGKQREWVAAIISGGSTNYADSVKGRFTISRDNAKNTVYLQMNSLRPEDTAVYYCNAILTYNDYDLGSDYWGQGTQVTVSS[here human IgG1 Fc with changes without letters] | 0.447 | 0.0405 | – | – | 0.105 | 0.000128 | 1.23e+06 |
| 1764-mu2 VHH-hFc fusion protein (Fc fusion, also called variant 2 (E23A, Q44G)) EVQLVESGGGLVQAGGSLRLSCAASGNIFKINVMGWYRQAPGKGREWVAAIISGGSTNYADSVKGRFTISRDNAKNTVYLQMNSLKPEDTAVYYCNAILTYNDYDLGSDYWGQGTQVTVSS[here human IgG1 Fc with changes without letters] | 0.344 | – | 0.0542 | – | 0.126 | 0.000154 | 1.23e+06 |
| 1764-mu4 VHH-hFc fusion protein (Fc fusion, also called variant 4 (E23A, Q44G, Q116L)) EVQLVESGGGLVQAGGSLRLSCAASGNIFKINVMGWYRQAPGKGREWVAAIISGGSTNYADSVKGRFTISRDNAKNTVYLQMNSLKPEDTAVYYCNAILTYNDYDLGSDYWGQGTLVTVSS[here human IgG1 Fc with changes without letters] | 0.37 | – | 0.0433 | – | 0.125 | 0.00015 | 1.2e+06 |
| 1764-mu5 VHH-hFc fusion protein (Fc fusion, also called variant 5 (E23A, N96A, A97F, Q116L)) EVQLVESGGGLVQAGGSLRLSCAASGNIFKINVMGWYRQAPGKQREWVAAIISGGSTNYADSVKGRFTISRDNAKNTVYLQMNSLKPEDTAVYYCAFILTYNDYDLGSDYWGQGTLVTVSS[here human IgG1 Fc with changes without letters] | – | – | – | – | 0.101 | 0.000111 | 1.1e+06 |
| 1764-mu6 VHH-hFc fusion protein (Fc fusion, also called variant 6 (A14P, E23A, Q44G, V78L, K86R, Q116L)) EVQLVESGGGLVQPGGSLRLSCAASGNIFKINVMGWYRQAPGKGREWVAAIISGGSTNYADSVKGRFTISRDNAKNTLYLQMNSLRPEDTAVYYCNAILTYNDYDLGSDYWGQGTLVTVSS[here human IgG1 Fc with changes without letters] | 0.603 | – | 0.066 | – | 0.2 | 0.000245 | 1.23e+06 |
| 1764-mu7 VHH-hFc fusion protein (Fc fusion, also called variant 7 (A14P, E23A, V78L, K86R, N96A, A97F, Q116L)) EVQLVESGGGLVQPGGSLRLSCAASGNIFKINVMGWYRQAPGKQREWVAAIISGGSTNYADSVKGRFTISRDNAKNTLYLQMNSLRPEDTAVYYCAFILTYNDYDLGSDYWGQGTLVTVSS[here human IgG1 Fc with changes without letters] | – | – | – | – | 0.131 | 0.000117 | 897000 |
| 1764-mu8 VHH-hFc fusion protein (Fc fusion, also called variant 8 (E23A, Q44G, V78L, N96A, A97F, Q116L)) EVQLVESGGGLVQAGGSLRLSCAASGNIFKINVMGWYRQAPGKGREWVAAIISGGSTNYADSVKGRFTISRDNAKNTLYLQMNSLKPEDTAVYYCAFILTYNDYDLGSDYWGQGTLVTVSS[here human IgG1 Fc with changes without letters] | – | – | – | – | 0.143 | 0.000144 | 1.01e+06 |
| 1764-mu9 VHH-hFc fusion protein (Fc fusion, Joining the two entries may therefore repeat these five residues; also called variant 9 (A14P, E23A, Q44G, V78L, K86R, N96A, A97F, Q116L)) EVQLVESGGGLVQPGGSLRLSCAASGNIFKINVMGWYRQAPGKGREWVAAIISGGSTNYADSVKGRFTISRDNAKNTLYLQMNSLRPEDTAVYYCAFILTYNDYDLGSDYWGQGTLVTVSS[here human IgG1 Fc with changes without letters] | – | – | – | – | 0.142 | 0.000121 | 853000 |
